The campaign covered roughly 310,000 compounds. About 14,000 (4.5%) showed an effect of 50% or more. Effects have a minus sign here. The list shows a part of the results.
What follows are compounds tested against human ether-à-go-go-related gene (hERG) potassium channel (human, UniProt Q12809) (assay: primary screen, population patch clamp on CHO cells stably expressing hERG).
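Note: peak tail current of the secondary pulse compared with the same well before compound.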

human ether-à-go-go-related gene (hERG) potassium channel, sequence (Q12809 whole entry, looked up): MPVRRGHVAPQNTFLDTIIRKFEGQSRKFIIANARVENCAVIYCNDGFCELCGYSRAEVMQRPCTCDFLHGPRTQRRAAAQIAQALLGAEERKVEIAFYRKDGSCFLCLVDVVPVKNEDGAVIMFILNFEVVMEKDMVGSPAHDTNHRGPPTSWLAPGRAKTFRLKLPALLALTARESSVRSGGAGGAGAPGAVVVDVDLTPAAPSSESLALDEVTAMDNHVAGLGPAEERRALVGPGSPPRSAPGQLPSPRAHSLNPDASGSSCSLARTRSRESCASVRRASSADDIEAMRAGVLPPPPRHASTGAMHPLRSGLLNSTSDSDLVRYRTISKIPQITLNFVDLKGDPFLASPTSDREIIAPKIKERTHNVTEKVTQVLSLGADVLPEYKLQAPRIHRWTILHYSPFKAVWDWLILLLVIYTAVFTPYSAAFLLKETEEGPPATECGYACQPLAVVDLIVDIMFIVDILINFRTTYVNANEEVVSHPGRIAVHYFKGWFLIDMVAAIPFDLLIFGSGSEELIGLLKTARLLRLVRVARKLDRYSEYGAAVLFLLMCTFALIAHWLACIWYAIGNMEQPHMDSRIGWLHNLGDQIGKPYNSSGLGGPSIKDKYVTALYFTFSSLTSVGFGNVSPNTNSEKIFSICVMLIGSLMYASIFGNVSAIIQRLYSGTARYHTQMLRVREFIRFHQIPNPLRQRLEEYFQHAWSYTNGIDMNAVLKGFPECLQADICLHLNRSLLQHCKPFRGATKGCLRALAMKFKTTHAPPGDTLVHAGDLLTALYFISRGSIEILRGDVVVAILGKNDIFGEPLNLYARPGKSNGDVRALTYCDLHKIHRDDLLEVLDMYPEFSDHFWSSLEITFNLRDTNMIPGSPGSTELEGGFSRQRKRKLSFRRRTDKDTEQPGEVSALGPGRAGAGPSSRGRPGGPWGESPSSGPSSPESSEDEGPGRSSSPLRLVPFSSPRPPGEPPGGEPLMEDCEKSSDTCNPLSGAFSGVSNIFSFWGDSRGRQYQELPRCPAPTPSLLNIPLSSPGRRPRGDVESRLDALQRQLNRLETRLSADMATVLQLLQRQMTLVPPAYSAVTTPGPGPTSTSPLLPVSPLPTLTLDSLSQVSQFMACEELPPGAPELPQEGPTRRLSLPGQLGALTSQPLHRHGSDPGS

SMILES | hERG current change (%, negative = inhibition) at 10uM
CCCS(=O)(=O)N1CCCC(C(=O)c2cccc(Cl)c2)C1 (stereo not shown) | 3.88%
CC(C)(C)NC(=O)CSc1nc2scc(-c3ccccc3)c2c(=O)[nH]1 | 13.7%
COc1cccc(C(=O)C2CCCN(Cc3c(C)n(C)n(-c4ccccc4)c3=O)C2)c1 (stereo not shown) | -21.2%
O=C(CCCOc1ccc(Cl)cc1Cl)NNC(=O)C1CCC1 | 21.8%
Cc1ccsc1/C=C1/NC(=O)N(Cc2ccc(F)cc2)C1=O | 1.98%
S=C([S-])N1CCCC1.[NH4+] | 7.55%
O=C(CSc1n[nH]c(-c2cccs2)n1)NCCc1ccccc1 | -13.4%
COC(=O)C1CCN(C(=O)COC(=O)c2oc3ccc(OC)cc3c2C)CC1 | -17.3%
Cc1ccc(N(C(=O)c2ccc(Br)o2)C2C=CS(=O)(=O)C2)cc1 (stereo not shown) | -14.9%
CCCc1cc(=O)n2[nH]c(NCc3ccc(Cl)cc3Cl)nc2n1 | -33.1%
O=C(CSc1nncs1)NCc1ccc2c(c1)OCO2 | 0.561%
C#CC1(O)C=CC2C3CCC4=CC(=O)CCC4C3CCC21CC (stereo not shown) | -2.88%
CCn1c(O)c(C=Nc2ccc(S(N)(=O)=O)cc2)c(=O)[nH]c1=S | 8.07%
Cc1ccc(C)c(Cn2ncc3ccccc32)c1 | -2.98%
COC(=O)c1nnc(-c2ccccc2)nc1OC | -2.57%
OCC[C@@H]1C[C@H](O)[C@@H](O)[C@]2(Cc3ccccc3CO2)O1 | -0.333%
COC(=O)c1ccc(OC(=O)CCN2C(=O)C3C4c5ccccc5C(c5ccccc54)C3C2=O)cc1 (stereo not shown) | 2%
CCOC(=O)C1=C(C)Nc2ncnn2C1c1cccnc1 (stereo not shown) | 3.7%
CCCOc1ccc(NC(=O)CC2C(=O)N(CC)C(=S)N2CCCN2CCN(Cc3ccccc3)CC2)cc1 (stereo not shown) | -50.5%
O=C(/C=C/c1ccccc1Cl)NCCCn1ccnc1 | -17%

SMILES | hERG current change (%, negative = inhibition) at 10uM
COc1ccc(OC)c(NC(=O)CN2C(=O)C(C)N(c3ccc(C)cc3)C2=O)c1 (stereo not shown) | -9.58%
COc1ccc(-c2noc(Cn3cc(S(=O)(=O)N4CCCC4)ccc3=O)n2)cc1 | 6.47%
COc1cc(NC(=O)Cc2ccccc2)ccc1NC(=O)c1ccco1 | 18.5%
O=C(C(=O)N1CCN(c2ccccc2)CC1)c1c[nH]c2ccccc12 | 4.09%
Cc1cccc2[nH]c3c(=O)n(CCN4CCNCC4)cnc3c12 | -4.87%
CN(CC(=O)Nc1ccc(F)cc1)C(=O)COC(=O)c1cc(S(=O)(=O)N(C)C)ccc1N1CCCC1 | -24.2%
O=C1CC(c2ccc(F)cc2)SC(N(c2ccccc2)c2ccccc2)=N1 (stereo not shown) | 9.06%
N#CC(c1ccc(F)cc1)c1ccc(C(=O)c2ccc(F)cc2)cc1 (stereo not shown) | 5.17%
Cc1ccc(C(=O)N2CCCC(CCC(=O)NCc3ccccc3F)C2)cn1 (stereo not shown) | 13.1%
COc1cc2c(cc1OC)C(c1cc([N+](=O)[O-])ccc1O)NCC2 (stereo not shown) | 27.6%
CCc1nnc(NC(=O)CSc2nc3cc(OC)c(OC)cc3cc2C)s1 | 5.07%
COc1ccc(OC)c(CCNC(=O)CCCc2nnc3n(C)c(=O)c4sccc4n23)c1 | -1.15%
COc1ccc(Cc2nnc(SCC(=O)c3ccccc3)o2)cc1 | -2.49%
O=C(NCCCN1CCCC1=O)Nc1ccc(Br)cc1Cl | -4.58%
O=C(c1ccco1)N1CCN(S(=O)(=O)Cc2ccccc2Cl)CC1 | -8.49%
COc1ccc(C)cc1S(=O)(=O)N(C)CC(=O)N1CCCC1 | 13.2%
COc1ccccc1CNC(=O)CCS(=O)(=O)c1ccc2c(c1)CC(C)N2C(=O)C1CC1 (stereo not shown) | 15%
COc1ccc(C2C(C#N)=C(N)OC3=C2C(=O)CCC3)c(OC)c1OC (stereo not shown) | 0.978%
COCCNC(=S)N(CCc1c(C)[nH]c2ccc(C)cc12)Cc1cc(OC)c(OC)c(OC)c1 | -11.8%
O=C(NCc1cccs1)C1CC1 | 19.6%

SMILES | hERG current change (%, negative = inhibition) at 10uM
CNC(=O)CSc1nnnn1CCCOC | -0.618%
CC(=O)NCCNC(=O)c1ccc(-n2c(C)ccc2C)cc1 | 11.5%
CCN(C(=O)COC(=O)C1=COCCO1)c1ccccc1 | -2.33%
Cc1cccc(OCC(=O)NCCCNC(=O)c2ccc(C)nc2)c1 | 17.9%
Cl.Fc1ccccc1COc1ccccc1CNCc1ccncc1 | -44%
COc1ccc(CNC(=O)C(=O)NC2CCC(C)CC2)cc1 (stereo not shown) | 19.4%
C=CCOc1nc(N(C)C)nc(N(C)C)n1 | 6.61%
COc1ccc(/C=N/NC(=O)CN(CCc2ccccc2)S(=O)(=O)c2ccc(NC(C)=O)cc2)cc1OC | -1.75%
O=C(NCc1cccs1)c1ccc(S(=O)(=O)N2CCCCC2)cc1 | 8.62%
N[C@@H](Cc1ccc(N(CCCl)CCCl)cc1)C(=O)O | 8.47%
CCC(C(=O)NCCC1=CCCCC1)c1ccccc1 (stereo not shown) | -2.83%
CN1CCC(N(C)C(=O)c2ccccc2Nc2ccc(SC(F)F)cc2)CC1 | -62.2%
COc1ccc(C(C)=O)cc1COC(=O)c1cccc(N(C)C)c1 | 1.74%
CCC1CCCN1Cn1cnc2c([nH]c3ccc(Cl)cc32)c1=O (stereo not shown) | -71.5%
O=C(Nc1cc(Cl)ccc1-n1cncn1)c1cncc(Br)c1 | -30.5%
CC1(C)COC(/C=C/c2ccc([N+](=O)[O-])cc2)=N1 | -26.1%
O=C(Cn1nc(Cl)nc1Cl)c1ccc(F)cc1 | 4.76%
CCOC(=O)c1c(NC(=O)CSc2nccn2C)sc(C(=O)NC)c1C | -11.5%

From article PMC4336329 (PLoS ONE, 2015)
